According to the supplement of paper PMC11417369:
Some of the results follow.

What follows are sequences tested on PF3D7_0420300 AP2 domain 1 (GST-tagged) (assay: gcPBM binding intensity (ln(normalized median fluorescence intensity)); higher = stronger DNA binding).
Method in brief: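 Binding intensity values are the highest Masliner-normalised natural-log median intensity among replicate spots of either probe orientation. The binding step lasted 1 h in 1× PBS with 1% milk, 0.2 mg/ml BSA, 0.5% salmon testes DNA and 0.03% Triton X-100, using GST-tagged P. falciparum DNA-binding domains expressed in E. coli on an Agilent 4 × 180k array of primer-extended double-stranded 36-bp intergenic genomic probes plus negative controls. Alexa488 anti-GST antibody and a 488 nm scan detected bound protein.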

| Sequence | gcPBM binding intensity (ln) |
| --- | --- |
| TTTTTGTTATTTTTAGTGCACATTTAAGGGTGTATT | 9.28 |
| TATATCTTACTTTTTGCACACACTAATATTATTGTT [CACACA_site1640] | 9.8 |
| GAAGGAAAAACAGAATGTACATAAATAAACGTATAT [XGTACX_site753] | 9.76 |
| ACAAAATTTACAAAATGTACAAAATTTACAAAATGT [XGTACX_site6464] | 9.12 |
| AATACGGCAAACATTAAAAAATATAATAACAATAAA [CACACA_negctrl_site868] | 9.53 |
| ATCTGTCGACAGGACAGTACACAGTAGCCAGGAAAT [XGTACX_site1994] | 9.39 |
| TATATATATATATATATATATATGTATGTGCATTTA [TGCATGCA_negctrl_site53] | 9.07 |
| ATTTAGAAAAATAAAACACACATATATATGTAAATA [CACACA_site4113] | 9.57 |
| ATATAAAAATGTAAGGGTACATAATAAATAATCAAA [XGTACX_site5217] | 9.48 |
| ATATATTTACATATTACACACAATATTGTACACATA [CACACA_site6564] | 9.7 |
| TTAAATATAATATTATGTACTAAATATTTTTTTATT [XGTACX_site6121] | 9.11 |
| TTTCTTTTTAAATAGGTGCATATTTTTATAAATATA | 9.03 |
| CTATTTCAGAAACACACACACACAAACAAACATATA [CACACA_site978] | 9.93 |
| CAAGAAATTTACAAACGTACATATGTTCATACAAGG [XGTACX_site2372] | 9.3 |
| TTAGAGAAACAAAATTGTACATTATAAATTTGCCTT [XGTACX_site440] | 9.01 |
| TATTTGAAAGCCAATTGTACTTTAGTTTTTGAAACA [XGTACX_site5542] | 8.81 |
| TTTATATATATTCTCACACACTTTTTATTTTAACAA [CACACA_site4534] | 9.53 |
| ATAAATTTCCTCGTTTTTTTTTTTTTTTTTTTTTTT [CACACA_negctrl_site1173] | 9.15 |
| AAAAATATTTATAACACACACATAATATTTATATAT [CACACA_site7238] | 9.83 |

| Sequence | gcPBM binding intensity (ln) |
| --- | --- |
| TAAGGATGAATCCTTTGTACATATATATATATATAT [XGTACX_site1242] | 9.12 |
| TTTTTTTAAATATACACACACATTTATACATATATA [CACACA_site3400] | 9.61 |
| TGAAAAGAAAACACATGTACAAATATATAAATATAA [XGTACX_site6098] | 9.48 |
| GTTATACATTTTGATTGTACATAAACCATTTGAGCA [XGTACX_site7283] | 9.05 |
| TTTAACGTTGAATATACACACATATATATATATATA [CACACA_site3698] | 9.38 |
| TATAAACATATCATATGTACATATATTTTTATAAAA [XGTACX_site8882] | 9.05 |
| ATATATTTTTGTAGTGTGCACGTTTATATGGTGAAA | 9.38 |
| AAGAAAAAATAAAAAATAAAAATAAAAAATAAAAAA [TGCATGCA_negctrl_site274] | 9.23 |
| ATCCAAAAAATTAATGCATGCGCAAAAAATAGCTTA [TGCATGCA_site615] | 9.11 |
| AAAAAAAAAACATACACACACATATATATATATATG [CACACA_site1586] | 9.93 |
| TGTCCTTATTTGCACACACACATATAAGAAATTTAA [CACACA_site7485] | 9.91 |
| TTTGTTTTATCTTATATGCACACGATAAAAAAAAAA [CACACA_site2673] | 9.03 |
| AGATGATATACGTAAACACACAAATAAAAAAAATTT [CACACA_site3327] | 9.54 |
| ACAAAAAAATAAGGTGCACACAAAAAAAAAAAAAAA [CACACA_site8171] | 9.5 |
| TTTTTTTTTTTTTGATGTACTTATTTAATAAGATAT [XGTACX_site376] | 8.99 |
| TATATGGCATATTTCACACACACATAATGAATATTA [CACACA_site9181] | 9.77 |
| GAGTTCAGTTTTTGTTGTACTTATTCTTAATATGTC [XGTACX_site6083] | 9.53 |
| ATATAGCATATAATTTGTACACAGGCCATACCTGAA [XGTACX_site533] | 9.28 |
| TACATATAAAAGTACACACACACACCCATATATATA [CACACA_site941] | 10.2 |

| Sequence | gcPBM binding intensity (ln) |
| --- | --- |
| ATGGACTTTTATAGTTGTACATACTATGAGAACTTT [XGTACX_site2800] | 9.16 |
| TAAAATAAATTGTGCACACATATTTATAAATATGAA [CACACA_site2331] | 9.34 |
| TATTGCCCGAAACACACACACATATATATATATATA [CACACA_site2491] | 9.81 |
| GTTTATCACAGCCACGCACACATAATATATGTATAT [CACACA_site3669] | 9.54 |
| TATAATATTTACGACAGTACATATATATATATGTAT [XGTACX_site8332] | 9.3 |
| AAATAATTTGTTGACACACACACACCCATACATATA [CACACA_site2285] | 10.2 |
| ATTATATGTAACACGTGTACCTATTTATGTATGCTT [XGTACX_site5748] | 9.4 |
| AATATACAAAATATCACACATATAAAATAATATATA [CACACA_site6067] | 9.48 |
| GATATATAAACATATACACACAAAAACATATTTATA [CACACA_site6734] | 9.51 |
| TGATAATTTCATTTTGCATGTGACAATACAAGATGT [TGCATGCA_site203] | 9.07 |
| AATGGTTCAACGTAGTGTACGTAATAAATAATAAAT [XGTACX_site8668] | 9.33 |
| AAATAATATGTAATCAAATTCACCAAACGAAAAAAA [TGCATGCA_negctrl_site33] | 9.52 |
| TATAAAATAAAAGTAAATATATATATATATATATAT [TGCATGCA_negctrl_site208] | 9.06 |
| TTCTAGAAAACTGATCGTACAAATAAATATAGACAC [XGTACX_site2808] | 9.33 |
| ATATATTATAATGATACACACAAGAAATAAAATTAC [CACACA_site3095] | 9.9 |
| AATGCATACACATATTGTACTAAGCCATACAACACA [XGTACX_site305] | 9.41 |
| AAAATAGGGATCACGTGTACATATAAAGTGACATAC [XGTACX_site8190] | 9.61 |
| TAACTCTATTTTTTTGCATGCTGAAGCTATGAGTTT [TGCATGCA_site821] | 9.15 |
| TATGTAGGTAAAAATTGTACTTTTTTTTTAATATTT [XGTACX_site2303] | 9.17 |
